A word on the % Inhibition: it is the change of the read-out against control, counted positive when it falls.

In all, about 150,000 compounds went through this assay and about 540 (0.36%) showed an effect of 50% or more. This is one part of the list.

This experiment concerns Plasmodium falciparum. Kind of experiment: Primary screen in NF54 nanoGlo assay, in single point, at 2uM, 72h; a lower Z score goes with more inhibition. To be noted: timepoint 72 hour. In kind it is functional, Erythrocyte.
For the compound `CC1CC1c1ccc(CNCC2CNc3ccnn3C2)o1` (stereo not drawn), the “% Inhibition” value is reported as -1% and the Z score is reported as 0.14.

As for `Cc1nn(C)c(Cl)c1S(=O)(=O)N1C[C@H]2CC=CC[C@H]2C1`, the “% Inhibition” value is on record as -7% and the Z score stood at 1.43.

Consider `Cn1c(Cn2cncn2)nnc1C1CCN(C(=O)OCC(C)(C)C)CC1`, for which the “% Inhibition” value was -6% and the Z score worked out at 1.

Consider `CN1CCN(C(=O)CCc2cccs2)CC1`, for which the “% Inhibition” value is given as -4% and the Z score is on record as 0.58.

Consider `O=C(NC1CC2CCC1O2)c1cc(C2CC2)nc2ccccc12` (stereo not drawn), for which the “% Inhibition” value turned out to be 4% and the Z score is -0.41.

On to `Cc1ccc2sc(C(=O)N3CCCN(C(N)=O)CC3)cc2c1`, for which the “% Inhibition” value was determined as 4% and the Z score was -0.78.

As to `COc1ccc2[nH]c(CN3C[C@H](OC(C)C)[C@@H](O)C3)c(C)c2c1`, the “% Inhibition” value is recorded as -5% and the Z score is 1.01.

As to `CN(Cc1cnc2ccc(Br)cn12)C[C@H]1CCOC1`, the “% Inhibition” value was 9% and the Z score was -0.9.

As for `CCn1c(=S)sc2c(N3CCCCC3)nc(-c3ccccc3)nc21`, the “% Inhibition” value turned out to be 5% and the Z score is reported as -0.68.

For the compound `Cc1cc(C)cc(C(=O)N2c3ccccc3C[C@H]2c2nc(C3CC3)no2)c1`, the “% Inhibition” value is recorded as -8% and the Z score was 1.

For the compound `CC(C)N(C)C(=O)N1CCC2(CC1)COCCO2`, the “% Inhibition” value was -5% and the Z score was determined as 0.4.

For the compound `CN(Cc1sc2ccccc2c1Cl)S(=O)(=O)N1CCCC1`, the “% Inhibition” value was -11% and the Z score was found to be 1.74.

For `O=C(NC1CCCC1)c1ccc(COc2ccc3ccccc3c2)o1`, the “% Inhibition” value was 6% and the Z score is given as -0.79.

`CC1(C)C[S@+]([O-])CCN1Cc1nc(-c2ccccc2)no1`: the “% Inhibition” value is given as -3% and the Z score is 0.52.

Turning to `CCC1Oc2cc(C(C)NCc3cc(C)on3)ccc2NC1=O` (stereo not drawn), the “% Inhibition” value was found to be 3% and the Z score is recorded as -0.5.

As for `O=C(NCc1ccc(O)cc1)[C@H]1CCCN(C2CCN(Cc3cccnc3)CC2)C1`, the “% Inhibition” value was -7% and the Z score worked out at 1.01.

Turning to `CC(C)c1nsc(CN2CCC[C@H](n3ccnn3)C2)n1`, the “% Inhibition” value is recorded as -10% and the Z score turned out to be 1.83.

On to `O=C(NC1CCCC1)C1CCN(C(=O)c2ccco2)CC1`, for which the “% Inhibition” value was -12% and the Z score was 1.7.

As for `CN(CC(=O)N1CCC[C@@H]1CO)S(=O)(=O)c1ccc2c(c1)OCCCO2`, the “% Inhibition” value was -12% and the Z score was determined as 1.33.

In the case of `Cc1n[nH]c(C)c1CC(=O)NC(Cc1ccccc1)[C@H]1C[C@H](O)C1` (stereo partly drawn), the “% Inhibition” value is listed as 12% and the Z score is given as -1.21.

In the case of `Cc1ncsc1C(=O)N1CCC2(CC1)CC(=O)N(C[C@H]1CCCO1)C2`, the “% Inhibition” value is on record as -3% and the Z score is recorded as 0.45.

Consider `O=C(NC1CC2CCC1C2)c1cc2n(n1)CCN(Cc1c(F)cccc1Cl)C2=O` (stereo not drawn), for which the “% Inhibition” value was -2% and the Z score is 0.24.

As for `O=C1NCCN(Cc2ccccc2OC2CCCC2)[C@H]1c1ccc(F)cc1`, the “% Inhibition” value is reported as -6% and the Z score worked out at 1.06.

On to `COc1cccc(C(=O)NC(C)C2CN(C)CCN2C)c1O` (stereo not drawn), for which the “% Inhibition” value was -19% and the Z score turned out to be 2.75.

For the origin of these results see ChEMBL document CHEMBL4888484, “Replenishing the malaria drug discovery pipeline: Screening and hit evaluation of the MMV Hit Generation Library 1 (HGL1) against asexual blood stage Plasmodium falciparum ,using a nano luciferase reporter read-out” (2022).
